Test results: PubChem BioAssay (Tox21)
This list was built around the results that the source calls inconclusive (neither active nor inactive); the mix of calls is not that of the screen. Potencies of inconclusive entries are left out as doubtful fits. Calls of active or inactive are those of the source. Unless noted, calls follow the shape of the dose curve; as a rule, active = well fitted curve in the direction sought with a large enough effect in the repeat runs; inconclusive = weak or mixed curves; inactive = no such curve, though single readings can be large; an effect the other way counts as inactive or inconclusive.

Key:
[1] = biological target: Peroxisome proliferator-activated receptor gamma (Homo sapiens) (UniProt P37231); assay: qHTS assay to identify small molecule antagonists of the peroxisome proliferator-activated receptor gamma (PPARg) signaling pathway (AID 743191; calls by dose curve; also: nearly all actives have a fitted effect of over 30% in size; as to ratio activity, negative = inhibition: % is scaled to controls: 0 for no effect and ±100 for the full control effect); details: HEK293H PPARg-UAS-bla, beta-lactamase ratio, antagonist, 17 h; ratio activity, negative = inhibition: at 62.6 µM (top of the series) unless noted
Sequence of UniProt P37231 (P37231 whole entry, looked up): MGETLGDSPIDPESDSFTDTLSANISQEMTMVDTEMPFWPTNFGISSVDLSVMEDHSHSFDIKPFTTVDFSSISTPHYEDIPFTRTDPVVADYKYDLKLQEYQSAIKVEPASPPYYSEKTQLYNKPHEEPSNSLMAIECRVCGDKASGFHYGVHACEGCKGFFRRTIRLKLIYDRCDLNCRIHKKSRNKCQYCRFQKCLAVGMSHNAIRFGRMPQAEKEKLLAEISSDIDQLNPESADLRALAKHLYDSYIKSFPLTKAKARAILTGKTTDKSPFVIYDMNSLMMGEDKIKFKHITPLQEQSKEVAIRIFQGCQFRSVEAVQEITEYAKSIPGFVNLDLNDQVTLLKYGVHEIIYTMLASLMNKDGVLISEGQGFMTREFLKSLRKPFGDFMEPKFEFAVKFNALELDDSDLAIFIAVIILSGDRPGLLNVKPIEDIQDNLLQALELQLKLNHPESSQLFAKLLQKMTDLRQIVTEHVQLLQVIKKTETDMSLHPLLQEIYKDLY
Summary of the method: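 GeneBLAzer PPARg UAS-bla HEK293H cells carrying a UAS-driven beta-lactamase reporter were plated at 3000 cells/well, preincubated 5 h at 37C, then given compound for 17 h at 37C; LiveBLAzer B/G FRET substrate was read after 1 h at room temperature.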

[2] = qHTS assay to identify small molecule antagonists of the peroxisome proliferator-activated receptor gamma (PPARg) signaling pathway - cell viability counter screen (AID 743194); details: PPARg-bla HEK293H viability, CellTiter-Glo luminescence, 17 h; Potency: co-treated with 50 nM rosiglitazone unless noted; activity change, negative = cytotoxicity: at 62.6 µM (top of the series), co-treated with 50 nM rosiglitazone unless noted; also: nearly all actives have a fitted effect of over 55% in size
Summary of the method: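 PPARg-UAS-bla HEK293H cells were plated, rested 5 h at 37 C, then treated with compounds plus rosiglitazone (50 nM final) for 17 h at 37 C; viability was then read by CellTiter-Glo luminescence after 30 min at room temperature.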

[3] = qHTS assay for small molecule agonists of the antioxidant response element (ARE) signaling pathway (AID 743202; active = well fitted activation curve with a large enough effect in the signal ratio in the repeat runs, not every such curve was filed as active; inconclusive = weak or mixed curves, or effect the other way; inactive = no such curve, though single readings can be large or run the other way; the % refers to the signal ratio); details: HepG2 ARE-bla reporter, beta-lactamase FRET, 16 h; activation: at 73.3 µM (top of the series) unless noted
Summary of the method: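 Read-out: LiveBLAzer B/G FRET substrate fluorescence after 2 h at room temperature, following 16 h compound treatment at 37 C of HepG2 cells carrying an ARE-driven beta-lactamase reporter.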

[4] = qHTS assay for small molecule agonists of the antioxidant response element (ARE) signaling pathway - cell viability counter screen (AID 743203; calls by dose curve; also: nearly all actives have a fitted effect of over 55% in size)
Summary of the method: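 Cells (ARE-bla HepG2, 2,000/well) receive DMSO-dissolved compounds after a 5 hrs rest. Plates incubate 16 hrs at 37C/5% CO2. CellTiter-Glo luminescence is then recorded after 30 min at room temperature.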

[5] = qHTS assay for small molecule activators of the heat shock response signaling pathway - cell viability counter screen (AID 743209); details: HSE-bla HeLa viability, CellTiter-Glo luminescence, 5 h; activity change, negative = cytotoxicity: at 62.6 µM (top of the series) unless noted; also: nearly all actives have a fitted effect of over 50% in size
Summary of the method: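 Quantitative HTS format, Tox21 10K library. HeLa cells carrying an HSE-driven beta-lactamase reporter were treated 5 h at 37 C, then assessed for viability by CellTiter-Glo luminescence.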

[6] = qHTS assay for small molecule activators of the heat shock response signaling pathway (AID 743210; active = well fitted activation curve with a large enough effect in the signal ratio in the repeat runs, with a control signal flat, not every such curve was filed as active; inconclusive = weak or mixed curves; the % refers to the signal ratio); details: HeLa HSE-bla reporter, beta-lactamase ratio, 5 h; activation: at 62.6 µM (top of the series)
Summary of the method: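 HSE-bla HeLa cells (beta-lactamase reporter under heat shock response elements) were exposed to compounds for 5 h at 37 C, then loaded with LiveBLAzer B/G FRET substrate for 2.5 h at room temperature before fluorescence reading.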

[7] = qHTS assay to identify small molecule antagonists of the peroxisome proliferator-activated receptor delta (PPARd) signaling pathway - cell viability counter screen (AID 743213); details: PPARd-bla HEK293H viability, CellTiter-Glo luminescence, 17 h; viability change, negative = cytotoxic: at 62 µM (top of the series) unless noted; also: nearly all actives have a fitted effect of over 50% in size
Summary of the method: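 Luminescence from CellTiter-Glo, added after the bla read and incubated 30 min at room temperature, gives viability of HEK293H PPARd-bla cells exposed to compounds for 17 h at 37 C with 300 nM L165041.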

[8] = biological target: Peroxisome proliferator-activated receptor delta (Homo sapiens) (UniProt Q03181); assay: qHTS assay to identify small molecule antagonists of the peroxisome proliferator-activated receptor delta (PPARd) signaling pathway (AID 743215; active = well fitted inhibition curve with a large enough effect in the signal ratio in the repeat runs, not every such curve was filed as active; inconclusive = weak or mixed curves, or effect the other way; inactive = no such curve, though single readings can be large or run the other way; the % refers to the signal ratio;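 also: cells stimulated with agonist L165041 at 300 nM final during compound exposure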); details: HEK293H PPARd-UAS-bla, beta-lactamase FRET ratio, antagonist, 17 h; ratio activity, negative = inhibition: at 62 µM (top of the series) unless noted
Sequence of UniProt Q03181 (Q03181 whole entry, looked up): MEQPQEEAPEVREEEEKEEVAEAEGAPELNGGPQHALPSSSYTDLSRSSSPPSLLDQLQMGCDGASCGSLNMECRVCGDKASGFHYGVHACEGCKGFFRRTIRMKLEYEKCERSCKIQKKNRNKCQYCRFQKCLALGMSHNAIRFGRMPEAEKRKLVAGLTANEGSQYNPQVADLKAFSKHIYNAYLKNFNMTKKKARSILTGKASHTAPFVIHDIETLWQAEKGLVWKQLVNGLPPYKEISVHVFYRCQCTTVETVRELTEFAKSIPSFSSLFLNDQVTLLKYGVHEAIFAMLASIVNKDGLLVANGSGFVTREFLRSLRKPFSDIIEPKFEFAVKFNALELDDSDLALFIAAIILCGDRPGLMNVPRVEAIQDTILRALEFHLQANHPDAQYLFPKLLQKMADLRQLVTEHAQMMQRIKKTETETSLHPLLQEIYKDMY
Summary of the method: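 Antagonist-mode beta-lactamase reporter screen: HEK293H cells with UAS-bla under PPARd control, stimulated by 300 nM L165041 (final) alongside test compound for 17 h at 37 C, then FRET fluorescence after 2 h substrate incubation.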

[9] = qHTS assay to identify small molecule antagonists of the farnesoid-X-receptor (FXR) signaling pathway - cell viability counter screen (AID 743221; active = well fitted cell-killing curve with a large enough effect in the repeat runs, not every such curve was filed as active; inconclusive = weak or mixed curves, or effect the other way; inactive = no such curve, though single readings can be large or run the other way; also: nearly all actives have a fitted effect of over 50% in size); details: FXR-bla HEK293T viability, CellTiter-Glo luminescence, 16 h; activity change, negative = cytotoxicity: at 62.6 µM (top of the series) unless noted
Summary of the method: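 Multiplexed counter screen: viability of FXR-bla HEK 293T cells under agonist stimulation by chenodeoxycholic acid (50 uM, final) and test compound for 16 h at 37 C, measured by CellTiter-Glo luminescence in the reporter wells.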

[10] = biological target: Vitamin D3 receptor (Homo sapiens) (UniProt P11473); assay: qHTS assay to identify small molecule antagonists of the vitamin D receptor (VDR) signaling pathway (AID 743223; active = well fitted inhibition curve with a large enough effect in the signal ratio in the repeat runs, not every such curve was filed as active; inconclusive = weak or mixed curves, or effect the other way; inactive = no such curve, though single readings can be large or run the other way; the % refers to the signal ratio); details: VDR-UAS-bla HEK293T, beta-lactamase FRET ratio, 16 h; activity change, negative = inhibition: at 61 µM (top of the series) unless noted
Sequence of UniProt P11473 (P11473 whole entry, looked up): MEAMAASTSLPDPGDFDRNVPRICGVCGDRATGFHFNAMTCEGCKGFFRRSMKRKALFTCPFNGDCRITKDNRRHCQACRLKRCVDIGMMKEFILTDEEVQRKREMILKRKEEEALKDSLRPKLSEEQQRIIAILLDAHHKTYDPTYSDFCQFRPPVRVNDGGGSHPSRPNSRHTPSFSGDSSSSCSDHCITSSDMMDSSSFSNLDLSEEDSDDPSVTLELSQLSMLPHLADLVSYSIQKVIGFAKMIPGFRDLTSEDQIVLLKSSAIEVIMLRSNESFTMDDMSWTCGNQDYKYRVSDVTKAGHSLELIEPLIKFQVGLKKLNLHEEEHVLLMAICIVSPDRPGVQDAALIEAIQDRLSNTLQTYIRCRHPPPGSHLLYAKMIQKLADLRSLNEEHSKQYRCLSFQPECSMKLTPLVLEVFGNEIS
Summary of the method: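 Cells carrying a VDR-driven beta-lactamase reporter (VDR-bla) were co-treated with compound and 3 nM final 1alpha,25-dihydroxyvitamin D3 for 16 h at 37C; reporter activity was measured as FRET substrate fluorescence after 2 h at room temperature.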

[11] = qHTS assay to identify small molecule agonists of the vitamin D receptor (VDR) signaling pathway - cell viability counter screen (AID 743224); also: nearly all actives have a fitted effect of over 50% in size
Summary of the method: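 VDR-bla cell line, quantitative HTS format; 16 h compound incubation (37C, 5% CO2); ATP-based CellTiter-Glo luminescence measured in the reporter assay wells.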

[12] = qHTS assay to identify small molecule antagonists of the vitamin D receptor (VDR) signaling pathway - cell viability counter screen (AID 743225); details: VDR-bla HEK293T viability, CellTiter-Glo luminescence, 16 h; viability change, negative = cytotoxic: at 61 µM (top of the series) unless noted; also: nearly all actives have a fitted effect of over 50% in size; as to viability change, negative = cytotoxic: % is scaled to controls: 0 for no effect and ±100 for the full control effect
Summary of the method: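 HEK293T VDR-bla; cpd + 1a,25-(OH)2D3 3 nM final, 16 h 37C/5% CO2; B/G FRET substrate 2 h RT; then CellTiter-Glo 30 min RT, luminescence.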

[13] = qHTS assay to identify small molecule agonists of the NFkB signaling pathway - cell viability counter screen (AID 1159515; calls by dose curve; also: nearly all actives have a fitted effect of over 55% in size)
Summary of the method: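 Viability in NFkB-bla ME-180 cells was measured by CellTiter-Glo luminescence, 30 min room temperature, in wells already treated 5 hr with compounds and read for reporter FRET.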

[14] = qHTS assay to identify small molecule agonists of the endoplasmic reticulum stress response signaling pathway (AID 1159516; active = well fitted activation curve with a large enough effect in the signal ratio in the repeat runs, not every such curve was filed as active; inconclusive = weak or mixed curves, or effect the other way; the % refers to the signal ratio); details: ESRE-bla HeLa, ER stress beta-lactamase reporter, 5 h; activation: at 61 µM (top of the series) unless noted
Summary of the method: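 ER stress element reporter (bla) in HeLa. 1,500 cells/well, overnight attachment; 5 hr compound; 2 hr RT substrate; dual-emission fluorescence.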

[15] = biological target: Peroxisome proliferator-activated receptor delta (Homo sapiens) (UniProt Q03181); assay: qHTS assay to identify small molecule agonists of the peroxisome proliferator-activated receptor delta (PPARd) signaling pathway (AID 743212; calls by dose curve); details: HEK293H PPARd-UAS-bla, beta-lactamase FRET ratio, 17 h; activation: at 62.6 µM (top of the series) unless noted
Summary of the method: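 GeneBLAzer PPARd UAS-bla HEK293H cells (beta-lactamase reporter under UAS control), plated and rested 5 h at 37 C, then exposed to compounds in DMSO at 37 C; LiveBLAzer B/G FRET substrate added, 2 h room temperature, fluorescence read.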

[16] = biological target: Bile acid receptor (Homo sapiens) (UniProt Q96RI1); assay: qHTS assay to identify small molecule antagonists of the farnesoid-X-receptor (FXR) signaling pathway (AID 743217; active = well fitted inhibition curve with a large enough effect in the signal ratio in the repeat runs, not every such curve was filed as active; inconclusive = weak or mixed curves, or effect the other way; inactive = no such curve, though single readings can be large or run the other way; the % refers to the signal ratio); details: HEK293T FXR-UAS-bla, beta-lactamase ratio, CDCA-stimulated, 16 h; activity change, negative = inhibition: at 62.6 µM (top of the series) unless noted
Sequence of UniProt Q96RI1 (Q96RI1 whole entry, looked up): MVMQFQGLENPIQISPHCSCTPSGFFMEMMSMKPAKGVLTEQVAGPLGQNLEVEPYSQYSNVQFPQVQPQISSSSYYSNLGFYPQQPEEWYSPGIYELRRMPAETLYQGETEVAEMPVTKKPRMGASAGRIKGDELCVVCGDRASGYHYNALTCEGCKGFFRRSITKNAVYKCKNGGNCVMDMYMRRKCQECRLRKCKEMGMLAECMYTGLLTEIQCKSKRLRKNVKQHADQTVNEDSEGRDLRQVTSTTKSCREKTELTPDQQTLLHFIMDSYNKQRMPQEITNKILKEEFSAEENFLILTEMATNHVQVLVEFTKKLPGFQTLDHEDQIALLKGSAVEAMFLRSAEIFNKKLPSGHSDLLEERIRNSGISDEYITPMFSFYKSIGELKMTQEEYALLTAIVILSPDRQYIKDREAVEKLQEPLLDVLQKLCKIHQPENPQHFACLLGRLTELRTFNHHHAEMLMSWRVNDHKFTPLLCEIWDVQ
Summary of the method: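 Beta-lactamase reporter under UAS control in HEK 293T cells; compound exposure 16 h at 37 °C in the presence of chenodeoxycholic acid (50 uM final); signal from B/G FRET substrate after 2 h at room temperature.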

[17] = biological target: Bile acid receptor (Homo sapiens) (UniProt Q96RI1); assay: qHTS assay to identify small molecule agonists of the farnesoid-X-receptor (FXR) signaling pathway (AID 743220; active = well fitted activation curve with a large enough effect in the signal ratio in the repeat runs, not every such curve was filed as active; inconclusive = weak or mixed curves, or effect the other way; the % refers to the signal ratio); details: HEK293T FXR-UAS-bla, beta-lactamase FRET ratio, 16 h; activation: at 62.6 µM (top of the series) unless noted
Summary of the method: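 Beta-lactamase reporter under UAS control in GeneBLAzer FXR HEK 293T cells (5000/well) measured with LiveBLAzer FRET substrate after 2 h at room temperature. Compound exposure lasted 16 h at 37C.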
Potency is read from the fitted curve at half-maximal effect; tags tell the direction and shape of the fitted curve or compound fluorescence and quenching.

| Structure (SMILES) | ratio activity, negative = inhibition [1] | Potency [2] | Potency [3] | Potency [4] | Potency [5] | Potency [6] | Potency [7] | Potency [8] | Potency [9] | Potency [10] | Potency [11] | Potency [12] | Potency [13] | Potency [14] | Potency [1] | Potency [15] | Potency [16] | Potency [17] |
| --- | --- | --- | --- | --- | --- | --- | --- | --- | --- | --- | --- | --- | --- | --- | --- | --- | --- | --- |
| Clc1ccc(CCC(Cn2ccnc2)Sc2c(Cl)cccc2Cl)cc1 (stereo not given) | inconclusive: -3.84% | inconclusive [cytotoxic, partial curve, poor fit] | inconclusive | inconclusive [cytotoxic, single point] | inconclusive [cytotoxic, single point] | inconclusive | inconclusive [cytotoxic, single point] | inconclusive [inhibitor, single point] | inconclusive [falling, single point] | inconclusive [inhibitor, partial curve, poor fit] | inconclusive [cytotoxic, single point] | inconclusive [cytotoxic] | active: 23.9 µM | inconclusive [cytotoxic, partial curve] | – | – | – | – |
| C=CC[C@]1(O)CC[C@H]2[C@@H]3CCC4=CC(=O)CCC4=C3C=C[C@@]21C | – | inconclusive [cytotoxic, single point] | inconclusive | – | – | – | – | inconclusive [activator, partial curve, poor fit] | – | inconclusive [fluorescent, partial curve, poor fit] | – | inactive | inconclusive [cytotoxic, partial curve, poor fit] | inconclusive [fluorescent, full curve] | inconclusive [fluorescent, single point] | inconclusive [rising, partial curve, poor fit] | inconclusive [rising, partial curve] | inconclusive [fluorescent, full curve] |
